Enrichment ratio data for 306 variants are collected here from a collection of fitness landscapes (doi:10.1126/science.1257360).

The chains are these.
B1: PhoQ; a variant is named by its letters at X, in order, P23837 (parent)
chain: MKKLLRLFFPLSLRVRFLLATAAVVLVLSLAYGMVALIGYSVSFDKTTFRLLRGESNLFYTLAKWENNKLHVELPENIDKQSPTMTLIYDENGQLLWAQRDVPWLMKMIQPDWLKSNGFHEIEADVNDTSLLLSGDHSIQQQLQEVREDDDDAEMTHSVAVNVYPATSRMPKLTIVVVDTIPVELKSSYMVWSWFIYVLSANLLLVIPLLWVAAWWSLRPIEALAKEVRELEEHNRELLNPATTRELTSLVRNLNRLLKSERERYDKYRTTLTDLTHSLKTPLXXLQXXLRSLRSEKMSVSDAEPVMLEQISRISQQIGYYLHRASMRGGTLLSRELHPVAPLLDNLTSALNKVYQRKGVNISLDISPEISFVGEQNDFVEVMGNVLDNACKYCLEFVEISARQTDEHLYIVVEDDGPGIPLSKREVIFDRGQRVDTLRPGQGVGLAVAREITEQYEGKIVAGESMLGGARMEVIFGRQHSAPKDE

The other results are listed elsewhere or left out.

In the assay the parent is B1. The experiment in a line: enrichment ratio after two sorts for PhoP signalling (ratio (wild type AVST 3.29)); higher = more functional. The conditions noted are these: with PhoP (E. coli).
In the case of NCPF, the enrichment ratio is not above 0.25. The value for HYSD was not above 0.25.

For FMSK, the enrichment ratio is not above 0.25.

With IWSV, the enrichment ratio was not above 0.25.

For the variant RWYK, the enrichment ratio is not above 0.25. The value for YYAQ was not above 0.25; that for SPSS was not above 0.25. Under IWCR stands not above 0.25; under YEQC, not above 0.25.

As to SHAI, the enrichment ratio was not above 0.25. EWLM: the enrichment ratio was not above 0.25. The value for GTEC was not above 0.25; that for STEW was not above 0.25. The value for GQCV was 5.95; that for RTHY was not above 0.25; that for HATV was not above 0.25.

Regarding IPPF, the enrichment ratio was not above 0.25. Under FQFK stands not above 0.25.

SLFC: the enrichment ratio is not above 0.25.

With IECL, the enrichment ratio is not above 0.25. Under SMFM stands not above 0.25; under PSNC, not above 0.25. Under MRMK stands not above 0.25.

As to LVGG, the enrichment ratio is not above 0.25.

On to FDIF, for which the enrichment ratio is not above 0.25. The value for SGFC was not above 0.25; that for PVLY was not above 0.25. Under KTEF stands not above 0.25; under ICAH, not above 0.25; under IFTP, not above 0.25.

Turning to VETR, the enrichment ratio is not above 0.25. Under DRNC stands not above 0.25.

On to WGQP, for which the enrichment ratio is not above 0.25. Under HRWQ stands not above 0.25; under MILD, not above 0.25. Under TCKM stands not above 0.25; under SRRS, not above 0.25. Under ADLT stands 11.3.

TTRQ: the enrichment ratio was not above 0.25. As for EMEN, the enrichment ratio was not above 0.25.

For the variant SGIA, the enrichment ratio was found to be 10.4. The value for PQTR was not above 0.25. On to WPPG, for which the enrichment ratio is not above 0.25. In the case of TWQM, the enrichment ratio is not above 0.25. The value for SKDV was not above 0.25; that for DFFP was not above 0.25. Under RCRF stands not above 0.25. Under KVKE stands not above 0.25; under WKRT, not above 0.25. Regarding WTMD, the enrichment ratio is not above 0.25. Under SPFC stands not above 0.25; under NWFG, not above 0.25. The value for IYAF was not above 0.25; that for LLHV was not above 0.25. The value for DPEF was not above 0.25; that for GFYS was not above 0.25. As to QFTW, the enrichment ratio was not above 0.25. The value for TLFS was not above 0.25. The value for FNID was not above 0.25. Under WHGH stands not above 0.25; under EGWM, not above 0.25; under TEDG, not above 0.25. Take TIVC: the enrichment ratio was not above 0.25.

Consider VPRD, for which the enrichment ratio is not above 0.25. Under NLHV stands not above 0.25; under AVCL, 10.2.

With LEEM, the enrichment ratio was not above 0.25. Consider ITPT, for which the enrichment ratio was not above 0.25. The value for PQYT was not above 0.25. On to FMDW, for which the enrichment ratio is not above 0.25. Under EPWH stands not above 0.25; under VNAV, 1.08; under EEEY, not above 0.25. Under LQDN stands not above 0.25; under HEIM, not above 0.25; under MEDC, not above 0.25.

Turning to NMCI, the enrichment ratio is not above 0.25.

Regarding SIAC, the enrichment ratio worked out at 13. Under GWHY stands not above 0.25; under SEAQ, 13.7. For the variant DPHE, the enrichment ratio is not above 0.25. With GSDG, the enrichment ratio was not above 0.25. As for NKCR, the enrichment ratio was not above 0.25. The value for RVWV was not above 0.25; that for FCTC was not above 0.25. The value for WVLG was not above 0.25; that for FAGV was not above 0.25. Under IHDF stands not above 0.25; under IMQW, not above 0.25; under AHYY, not above 0.25.

For the variant FHEF, the enrichment ratio was not above 0.25. The value for QEQQ was not above 0.25; that for HQMM was not above 0.25; that for QQHR was not above 0.25. Turning to QRPD, the enrichment ratio was not above 0.25. Under VGLW stands not above 0.25; under VVRT, not above 0.25. Under MTNG stands not above 0.25. Under TMDE stands not above 0.25; under STLV, 15.4; under EILG, not above 0.25. Consider HHKY, for which the enrichment ratio is not above 0.25. Under MYCN stands not above 0.25. The value for RMVD was not above 0.25; that for VLCY was not above 0.25; that for VDQG was not above 0.25.

In the case of QYIN, the enrichment ratio was not above 0.25.

As for TKHH, the enrichment ratio was not above 0.25. The value for WVCW was not above 0.25; that for DCFW was not above 0.25.

Regarding WHKT, the enrichment ratio was not above 0.25. Under VMSM stands not above 0.25; under EKIH, not above 0.25; under PSGM, not above 0.25. The value for QPDR was not above 0.25; that for DQYV was not above 0.25; that for KQPI was not above 0.25.

HFLI: the enrichment ratio is not above 0.25. The value for ECKL was not above 0.25; that for DFLD was not above 0.25. The value for MKCQ was not above 0.25; that for GGAR was not above 0.25. Under FSDP stands not above 0.25; under MERT, not above 0.25.

Regarding VWRM, the enrichment ratio was not above 0.25. The value for FLSS was not above 0.25; that for SKLA was 8.7. Under DVDA stands not above 0.25. The value for PNGN was not above 0.25; that for MDDW was not above 0.25; that for MHFG was not above 0.25. Consider WIIL, for which the enrichment ratio is not above 0.25. Under SLPP stands not above 0.25. For EEGG, the enrichment ratio is not above 0.25. Under WKLA stands not above 0.25; under GNRD, not above 0.25; under CFVN, not above 0.25.

On to YVVV, for which the enrichment ratio was not above 0.25. On to KNMW, for which the enrichment ratio was not above 0.25.

In the case of VQIA, the enrichment ratio is not above 0.25. Under QLKD stands not above 0.25. For VWPQ, the enrichment ratio is not above 0.25. The value for FLSM was not above 0.25. As to HREN, the enrichment ratio is not above 0.25.

Consider NYWE, for which the enrichment ratio is not above 0.25. Under MWVR stands not above 0.25. Under KGTA stands not above 0.25; under LCFS, not above 0.25; under RVPT, not above 0.25. The value for IGRA was not above 0.25. As for QIFF, the enrichment ratio was not above 0.25. Under QIVA stands not above 0.25; under FPSR, not above 0.25. Regarding ENVL, the enrichment ratio was not above 0.25.

VRIG: the enrichment ratio was not above 0.25.

As to RLMF, the enrichment ratio was not above 0.25. Under ECIR stands not above 0.25; under EKLL, not above 0.25; under QMYA, not above 0.25.

In the case of NFEH, the enrichment ratio is not above 0.25.

ITLI: the enrichment ratio is 8.76. Take QMLC: the enrichment ratio is not above 0.25.

Consider SDIP, for which the enrichment ratio was 0.899.

On to IMGF, for which the enrichment ratio was not above 0.25. The value for SDKN was not above 0.25; that for EKDS was not above 0.25; that for ASSA was 8.93.

Turning to RYDD, the enrichment ratio was not above 0.25. The value for GSIQ was 5.89; that for TAMP was not above 0.25. Take QRYM: the enrichment ratio is not above 0.25. The value for GVKD was not above 0.25. Consider YVHP, for which the enrichment ratio was not above 0.25. The value for ERCW was not above 0.25; that for HNTD was not above 0.25; that for IASK was not above 0.25.

As for PIEL, the enrichment ratio is not above 0.25. The value for MGPE was not above 0.25; that for QIQR was not above 0.25; that for NELR was not above 0.25. Consider TVAL, for which the enrichment ratio stood at 6.12. On to HGMK, for which the enrichment ratio was not above 0.25. In the case of KGAL, the enrichment ratio was not above 0.25. As for KVLS, the enrichment ratio is not above 0.25. For ACQF, the enrichment ratio is not above 0.25.

In the case of HPGR, the enrichment ratio was not above 0.25.

Regarding MSWI, the enrichment ratio stood at 14.1. Under IGDA stands not above 0.25; under YMQP, not above 0.25; under EPFD, not above 0.25. Under QNQN stands not above 0.25. Under PWWR stands not above 0.25.

For SVEN, the enrichment ratio was not above 0.25. The value for SQQD was not above 0.25; that for GTLS was 9.81; that for MYRP was not above 0.25. Under PNMA stands not above 0.25. Under MYIN stands not above 0.25.

For the variant LWAH, the enrichment ratio is not above 0.25.

For the variant ERAV, the enrichment ratio is not above 0.25.

Consider LIWG, for which the enrichment ratio is not above 0.25.

For the variant QQIP, the enrichment ratio was not above 0.25. Under IYSA stands not above 0.25; under ITCG, not above 0.25; under INLP, not above 0.25.

Consider PVLC, for which the enrichment ratio is not above 0.25. The value for RLNL was not above 0.25; that for DKEI was not above 0.25; that for TLRR was not above 0.25. As for VFYD, the enrichment ratio is not above 0.25.

For HKNV, the enrichment ratio is not above 0.25. Under RKNT stands not above 0.25; under NYYK, not above 0.25. Under WFNI stands not above 0.25; under VHLF, not above 0.25. Under FIWR stands not above 0.25; under NHFF, not above 0.25; under QHAS, not above 0.25. For the variant IMLF, the enrichment ratio is not above 0.25.

Consider TVVR, for which the enrichment ratio was not above 0.25. Under DYMN stands not above 0.25; under FFWN, not above 0.25; under YKFD, not above 0.25. With QKAS, the enrichment ratio is not above 0.25. The value for AIHL was not above 0.25; that for FDDI was not above 0.25; that for WSEY was not above 0.25. Under INCT stands not above 0.25; under RGVN, not above 0.25. LLEI: the enrichment ratio is not above 0.25. Take RFDL: the enrichment ratio is not above 0.25.

Regarding PISG, the enrichment ratio is not above 0.25. Under CTPS stands not above 0.25; under EDHL, not above 0.25; under WSAP, not above 0.25.

As for DCAQ, the enrichment ratio is not above 0.25.

Consider DKVF, for which the enrichment ratio is not above 0.25. For the variant YIHG, the enrichment ratio is not above 0.25.

Take GFAP: the enrichment ratio was not above 0.25.

Consider QLQH, for which the enrichment ratio is not above 0.25. The value for QSPK was not above 0.25; that for PMTI was not above 0.25. For the variant PNYR, the enrichment ratio was not above 0.25.

Regarding VMGR, the enrichment ratio was not above 0.25. Under SVFW stands not above 0.25; under DMFY, not above 0.25; under TMLS, 4.79. Under AVPW stands not above 0.25.

HAFN: the enrichment ratio is not above 0.25.

As for HTIW, the enrichment ratio was not above 0.25.

In the case of MHMC, the enrichment ratio is not above 0.25. Take FLSA: the enrichment ratio was not above 0.25.

For ITQH, the enrichment ratio was not above 0.25. As to FFCH, the enrichment ratio is not above 0.25. Under FVQD stands not above 0.25; under ASQE, not above 0.25. The value for FMGS was not above 0.25; that for VIHL was not above 0.25; that for WGKG was not above 0.25.

Take VKYK: the enrichment ratio is not above 0.25. Under PYVL stands not above 0.25; under QWSP, not above 0.25. The value for RPGD was not above 0.25.

Take PYGG: the enrichment ratio is not above 0.25.

Take VFTM: the enrichment ratio was not above 0.25.

As to YPGH, the enrichment ratio is not above 0.25.

For the variant FYFM, the enrichment ratio was found to be 0.584. Under MLSN stands not above 0.25.

As to YMGL, the enrichment ratio was not above 0.25. The value for AYET was not above 0.25; that for KVYV was not above 0.25. Under KTEK stands not above 0.25. With SDSQ, the enrichment ratio was not above 0.25. On to HGTM, for which the enrichment ratio came to 0.737.

For the variant MVVT, the enrichment ratio was not above 0.25. The value for QTMM was not above 0.25; that for HHWL was not above 0.25; that for QRKR was not above 0.25.

With IRYN, the enrichment ratio is not above 0.25. The value for QMVC was not above 0.25; that for PGTE was not above 0.25; that for LKDQ was not above 0.25.

As for HIFD, the enrichment ratio is not above 0.25. In the case of HLMA, the enrichment ratio was not above 0.25. The value for HVVW was not above 0.25.

With SCRV, the enrichment ratio is not above 0.25. Under SIQD stands 4.03; under FWAH, not above 0.25.

For the variant PPLD, the enrichment ratio is not above 0.25. Under PNNQ stands not above 0.25. Under LIWF stands not above 0.25. Under RMLI stands not above 0.25; under VLWN, not above 0.25. NNVT: the enrichment ratio was not above 0.25.

Consider HFRF, for which the enrichment ratio is not above 0.25. The value for DKNF was not above 0.25. Under KLVV stands not above 0.25; under NINT, not above 0.25; under LVQN, not above 0.25. Under VFLM stands not above 0.25; under NHIA, not above 0.25; under YFKI, not above 0.25. Consider WFYD, for which the enrichment ratio is not above 0.25. Under GVIN stands not above 0.25. Under TMLK stands not above 0.25; under QYKN, not above 0.25.
